From patent US20100081613A1, “METHODS AND COMPOSITIONS FOR ENHANCING MEMORY” (THE TRUSTEES OF COLUMBIA UNIVERSITY IN THE CITY OF NEW YORK, priority 2006, published 2010)

Target: rodent Aβ42 (Mus musculus; Rattus norvegicus)
Assay: cell-based or functional assay

post-tetanic potentiation (PTP) in the presence of D-APV, m3.2 mAbs 2 µg/ml (% of PTP compared to vehicle): 71
Substance: anti-rodent Aβ monoclonal antibody m3.2
